Test results taken from paper PMC4336329 (PLoS ONE, 2015).
In all, about 310,000 compounds went through this assay and about 14,000 (4.5%) showed an effect of 50% or more. The effect is printed as a negative number. This is one part of the list.

Target: human ether-à-go-go-related gene (hERG) potassium channel (human, UniProt Q12809)
Assay: primary screen, population patch clamp on CHO cells stably expressing hERG
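Note: peak tail current of the secondary pulse compared with the same well before compound.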

Sequence of human ether-à-go-go-related gene (hERG) potassium channel (Q12809 whole entry, looked up): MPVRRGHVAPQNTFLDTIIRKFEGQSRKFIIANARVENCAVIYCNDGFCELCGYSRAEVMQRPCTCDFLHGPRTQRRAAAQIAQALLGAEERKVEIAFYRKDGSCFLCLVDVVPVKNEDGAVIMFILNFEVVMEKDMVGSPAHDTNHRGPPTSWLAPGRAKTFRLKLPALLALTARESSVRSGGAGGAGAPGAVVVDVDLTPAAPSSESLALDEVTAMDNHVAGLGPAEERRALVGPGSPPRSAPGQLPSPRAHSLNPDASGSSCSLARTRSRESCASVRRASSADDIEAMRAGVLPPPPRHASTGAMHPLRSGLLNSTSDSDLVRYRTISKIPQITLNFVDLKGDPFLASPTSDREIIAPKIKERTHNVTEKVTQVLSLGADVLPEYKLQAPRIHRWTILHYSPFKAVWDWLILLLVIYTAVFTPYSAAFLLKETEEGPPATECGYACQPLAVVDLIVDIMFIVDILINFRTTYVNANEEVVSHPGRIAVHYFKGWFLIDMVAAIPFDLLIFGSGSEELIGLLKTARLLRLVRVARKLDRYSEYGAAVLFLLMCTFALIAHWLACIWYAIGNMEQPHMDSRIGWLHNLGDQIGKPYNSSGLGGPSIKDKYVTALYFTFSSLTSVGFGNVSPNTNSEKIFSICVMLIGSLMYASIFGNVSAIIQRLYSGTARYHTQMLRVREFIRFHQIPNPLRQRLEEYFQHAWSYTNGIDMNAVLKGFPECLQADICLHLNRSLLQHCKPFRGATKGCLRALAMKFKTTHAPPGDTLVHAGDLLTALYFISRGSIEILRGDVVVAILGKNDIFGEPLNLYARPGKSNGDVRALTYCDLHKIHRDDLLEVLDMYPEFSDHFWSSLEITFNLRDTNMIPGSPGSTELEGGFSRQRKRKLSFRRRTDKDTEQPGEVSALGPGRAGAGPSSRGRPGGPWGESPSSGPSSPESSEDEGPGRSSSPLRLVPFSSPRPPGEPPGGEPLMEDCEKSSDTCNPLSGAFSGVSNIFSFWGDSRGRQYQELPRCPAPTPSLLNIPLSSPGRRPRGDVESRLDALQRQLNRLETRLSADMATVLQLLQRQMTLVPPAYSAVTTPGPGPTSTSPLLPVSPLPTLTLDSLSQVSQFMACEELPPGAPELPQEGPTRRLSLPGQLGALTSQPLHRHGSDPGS

Point of comparison: `Cc1nc(N2CCN(c3ccccc3)CC2)nc2c1C(=O)CCC2`, “hERG current change (%, negative = inhibition) at 10uM” value -20.1%. Against it:
- CC(NC(=O)COC(=O)CNC(=O)C1CCCCC1)c1ccccc1 (centres unmarked) — higher, -3.81%
- CC(C)c1ccc(NC2CCCN(C(=O)c3ccnn3C)C2)cc1 (centres unmarked) — higher, 1.35%
- COc1cccc(N2CCN(Cc3nc4ccccc4c(=O)[nH]3)CC2)c1 — higher, -18.9%
- CN(C)S(=O)(=O)c1ccc(Cl)c(NC(=O)COC(=O)c2ccc3c(c2)NC(=O)CS3)c1 — higher, -2.84%
- Cc1ccccc1N1CCN(C(=S)c2ccc(-c3ccc([N+](=O)[O-])cc3)o2)CC1 — higher, 20.2%
- CCC(=O)Nc1nnc(SCC(=O)c2ccc3c(c2)Cc2ccccc2-3)s1 — higher, 1.45%
- COC(=O)C/C=C/[C@@H](C)[C@@H](/C=N/OC[C@@H](C)[C@H](OCc1ccccc1)C(C)C)NS(=O)(=O)c1ccc(C)cc1 — higher, 0.868%
- CC(C)NC(=O)c1onc(CSc2ccncc2)c1C(=O)NC(C)C — higher, 3.18%
- O=C(NCc1ccc(F)cc1)C(c1ccco1)N(C(=O)c1csnn1)c1ccccc1 (centres unmarked) — higher, -4.77%
- CCCCNC(=O)CC(=O)Nc1ccccc1C(=O)O — higher, 4.41%
- Cc1cc2occ(CC(=O)NC3(C)CCS(=O)(=O)C3)c2cc1C (centres unmarked) — higher, -8.43%
- Cc1nnc(SCC(=O)NNC(=O)CC#N)[nH]c1=O — higher, -7.01%
- COC(=O)c1ccc(-n2cnc(Cl)n2)c(F)c1 — higher, -7.27%
- COc1cc(OC)cc(-c2c(-c3cccs3)c3cc(-c4cccc5[nH]ccc45)ccc3n2C)c1 — higher, 8%
- CCC(C)NC(=O)c1cc(-c2cccs2)nc2ccccc12 (centres unmarked) — higher, 22.7%
- CCC(C)(NC(=O)c1cccc(N2C(=O)CSC2c2ccccc2)c1)C(=O)Nc1ccccc1C (centres unmarked) — lower, -24.3%
- Cc1ccccc1OCc1nc2c3cnn(C)c3ncn2n1 — higher, 8.91%
- COC(=O)c1cc(NC(=O)C2C3C=CC(C3)C2C(=O)O)cc(C(=O)OC)c1 (centres unmarked) — higher, -0.345%
- CCC(c1nnnn1C1CCCCC1)N1CCN(C(=O)c2ccco2)CC1.Cl (centres unmarked) — higher, -11.4%
- Cc1nc(=O)c(-c2ccccc2)c(C)n1-c1ccccc1O — higher, 3.54%
- CCSc1nnc([C@@H](NC(=O)OC(C)(C)C)C(C)C)o1 — higher, 6.24%
- COc1ccc(C(C)(C)C)cc1S(=O)(=O)N1CCC(C(N)=O)CC1 — higher, 13%
- CCN1C(=O)N(C)[C@@H](c2ccccc2)C(C(=O)OC)=C1C — higher, -0.217%
- CCOc1cccc(CNCc2cccnc2)c1OCc1ccccc1.Cl — higher, -19.7%
- Cn1c(NC(=O)C2c3ccccc3Oc3ccccc32)cc(=O)n(C)c1=O — higher, -3.72%
- O=c1cc(NCc2ccccc2)nc2ccccn12 — higher, 8.39%
- CCOC(=O)c1c(C)[nH]c(C(=O)CSc2nnc(Nc3ccccc3F)s2)c1C — higher, -7.48%
- CC1(NC(=O)CCS(=O)(=O)c2ccc(Cl)cc2)CCS(=O)(=O)C1 (centres unmarked) — higher, 10.8%
- CN1CCN(c2ccc([N+](=O)[O-])c(NCc3ccco3)c2)CC1 — lower, -51.9%
- O=C(O/N=C1/CCSc2ccccc21)c1ccccc1 — higher, 11.8%
- O=C(NCc1ccco1)/C(=C\c1cccs1)NC(=O)c1cccs1 — higher, 6.26%
- CCn1c(C(=O)NC2CCC(C)CC2)cc2sccc21 (centres unmarked) — higher, 25.1%
- Cc1ccc(S(=O)(=O)NC(=O)Nc2ccccc2F)cc1 — higher, 22.1%
- Cc1ccc(SC/C(O)=C(\C#N)c2nc3ccccc3s2)cc1 — higher, 29.9%
- CC1(C)C2CC[C@]3(C)C(CC=C4[C@@H]5C[C@@](C)(CO)[C@@H]6C[C@@]5(CC[C@]43C)C(=O)O6)[C@@]2(C)CC[C@@H]1O (some centres unmarked) — higher, 19.4%
- Cc1ccc(C(=O)CSc2ncn[nH]2)cc1 — higher, -5.26%
- CC(C)(C)c1ccc(C(=O)NCCCNC(=O)c2ccccn2)cc1 — higher, -14%
- Cc1cccc(Oc2ncc(-c3ccc(Cl)cc3)cn2)c1 — higher, 5.22%
- COC(=O)c1ccc(C(=O)OC)c(-n2c(=O)c3ccccc3c3ccccc3c2=O)c1 — higher, 6.43%
- COc1ccc(NC(=O)c2nc[nH]c2C(=O)N2CCN(C(=O)OC(C)(C)C)CC2)cc1 — lower, -34.5%
- CN(C)N=Nc1ccc(S(=O)(=O)NC(Cc2ccccc2)C(=O)O)cc1 (centres unmarked) — higher, 22.3%
- O=C(CCNS(=O)(=O)c1ccccc1)N1CCCCCC1 — higher, 20%
- O=C(c1ccc2c(c1)OCO2)N1CCN(c2ccc(C(F)(F)F)cn2)CC1 — lower, -55.6%
